The list shows a part of the results. The list includes weakly bound sequences.
biological target: MaxL homodimer (UniProt P61244); experiment: universal protein-binding microarray (PBM); details: PBS-based mixture, 10 nM His-tagged protein dimer, 2% milk, 200 ng/uL BSA, 50 ng/uL salmon testes DNA, 0.02% TX-100; detection with Alexa 488 anti-His …; high values mean tight binding; most listed sequences are background and not binding sites; double strand, one strand shown
Sequence of UniProt P61244 (P61244 whole entry): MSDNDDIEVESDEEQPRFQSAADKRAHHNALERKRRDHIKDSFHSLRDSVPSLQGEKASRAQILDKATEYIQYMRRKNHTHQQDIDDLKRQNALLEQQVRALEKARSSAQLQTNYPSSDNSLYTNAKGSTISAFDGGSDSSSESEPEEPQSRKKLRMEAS

Sequence	binding signal (normalized occupancy)
AAGCTTTG	0.0692
CGTGCGGC	0.0868
AACTGAAA	0.0716
ATCTGTTA	0.0767
CGCGTTGC	0.0781
GATGACGC	0.0757
CGCATGAA	0.0861
AAGTTATC	0.0766
ACTACAAC	0.0774
ATGTGGTA	0.0922
CAAACCTG	0.0755
ACTTAATG	0.0716
CGGCTGAA	0.0645
ACACCTAG	0.0768
GACCTGGC	0.0687
CCACACCC	0.0868
CACTGGTA	0.0765
CAAACGAA	0.0718
ACGTACAG	0.0776
GAGGTTAA	0.0751
TATACGCA	0.0816
CGAGCTAC	0.073
CACCCTGC	0.0738
GGCCCGCC	0.0726
CCCTACGG	0.0685

Sequence	binding signal (normalized occupancy)
AATCCCCA	0.0823
ACAGGCAT	0.0804
GCTGTGCA	0.075
AATTTGCG	0.0688
AAGAGTTG	0.0714
CAGGTCCA	0.0775
CTCGCCTA	0.0715
ATACAGCG	0.077
ATCAATCG	0.0807
ACAATCTG	0.0757
AATAATTC	0.0795
CATTCAAC	0.0769
ACCACGAG	0.115
ATAGGGAA	0.0721
CGCACCGA	0.077
ACAGAAAG	0.0747
ACTGCGTC	0.0666
GCCTGGGA	0.068
ATGACCTC	0.0796
CGCATGCA	0.122
TAGGAATA	0.0757
CCCGATAC	0.0717
CCGCCTCA	0.0698
CTCTATCC	0.0797
GAACGCGC	0.0708

Sequence	binding signal (normalized occupancy)
TAGGTCGA	0.072
AGGCGAGC	0.0637
CACAATTC	0.0794
GCAAAACC	0.071
CCGTTTTA	0.0759
ACTATGAT	0.0785
ACAACAGT	0.0722
GCGGTCAC	0.0757
GTATGGAC	0.0779
TAAGGAAA	0.0738
AACGAATT	0.0717
CGTCTCTA	0.0733
ATTGACTG	0.0739
TATATGCA	0.0896
ACAGCGAT	0.0762
ACGGGAGT	0.0773
AGTTCAAT	0.0795
GATTTATA	0.0736
CGACGGAG	0.0681
AAACATCA	0.0844
ACATGCAG	0.097
GGCGGAAA	0.0683
AAGTGGAC	0.0717
CGATGACA	0.0817
CAGTGCCG	0.0707

Sequence	binding signal (normalized occupancy)
CTTATAGC	0.0825
AAAGTCTT	0.0698
GCTACACA	0.0771
CCGGAACC	0.0683
ACCGCCAC	0.0803
CATGTAGG	0.0929
CTATTCAA	0.0762
CAAACGCG	0.0748
GCTAGAGC	0.0669
CACATGTG	0.216
AGTTTCGC	0.0689
ACCAACTC	0.0732
AGAACGCA	0.0762
ATCCTGCC	0.0784
ACCCCCTA	0.0797
TGTATGAA	0.0859
AGTGTTAA	0.0742
CAGTAAAA	0.0717
AAGACTTA	0.0751
ATGAATTA	0.0806
GCAAACGC	0.0735
CCTCTAAC	0.0759
CGAAATAA	0.0704
ATATTGTA	0.081
CCGACAAG	0.0708

Sequence	binding signal (normalized occupancy)
AGCTCTTC	0.0714
AAACACCG	0.0706
CGTCAGAC	0.0733
ACGCTTCT	0.0775
GCACCCCA	0.078
GGCTCCTA	0.0694
GTGCATTA	0.0779
GTGTCCAA	0.076
AAGGGGAA	0.0744
TGGCCACA	0.0875
CATATTAC	0.0801
CTAGCGAA	0.071
AAGGGCCG	0.0664
CCAAACAC	0.0858
CGAGCCTA	0.0698
AGCGGAGA	0.0714
CTTGAGCC	0.0693
AATCGTCT	0.0757
GGGACATA	0.0821
AACGGGTG	0.078
AGGAGGGC	0.0759
CTAGTAAG	0.0728
ATCCGCAA	0.075
ATGTAAGC	0.0797
AACCATTC	0.0758

Sequence	binding signal (normalized occupancy)
GAGTATTA	0.0788
CCGATTCG	0.0719
ACTTAGGG	0.073
GTTGAAAA	0.0729
CCTCCTGC	0.0769
CTCAATAA	0.073
CAACCACC	0.0741
GAAGACTC	0.0694
AGACATTC	0.0798
CGGCTGGA	0.0689
CGGCTCCA	0.0694
GCCACGAC	0.077
ACACGATA	0.0824
AGTTCGAT	0.0764
GAATGCGA	0.077
AAGATTGG	0.0762
ATATATGA	0.0855
AATGTACT	0.0746
CTTCCGTA	0.0736
AGACGAGA	0.0692
ACGTCAGC	0.0819
AGCTAGTA	0.0688
AAGCGCCA	0.0693
CGTGCCAG	0.0784
ATGATTTG	0.0775

Sequence	binding signal (normalized occupancy)
ACATTAAT	0.0775
ACGAGCTA	0.0699
AACGGTCG	0.0728
GATTATTA	0.0834
CGTGGAGA	0.084
AATCAGTG	0.0739
CAGCAGGC	0.067
GACTTGCC	0.0652
CATAGTTC	0.0742
AGACACAA	0.0705
AGTCGGCC	0.0671
GCTGAGGA	0.0717
GGCCAGTA	0.0714
GGCTTTAA	0.0708
ATCCTCAT	0.0899
AACTCGCA	0.0712
ATGTCTCG	0.0802
CACTGTAA	0.0748
CACCTCAG	0.0704
CCAGGTAA	0.0729
CGCCCAGA	0.0713
CGAGAACC	0.0813
GATCAACA	0.078
AATTATGG	0.0831
CGAAGGAA	0.0722

Sequence	binding signal (normalized occupancy)
AAGTTGAG	0.0725
ACTGGAAT	0.0784
ACTGCGCG	0.0704
CATGGTCA	0.0991
AGTCCGAG	0.0716
CACAAACA	0.0811
TCGCACGA	0.0806
CTCGGGCA	0.0702
TAACTGGA	0.0697
GAATACGA	0.0768
GCCAGTTA	0.0705
ACACCTTC	0.0779
AAGGCAAC	0.0734
AGAGATCA	0.0773
GCCCTGCC	0.0693
GGAACCTA	0.0727
CTTAGAAC	0.0717
AGTGCGAC	0.0717
ATGGGGTG	0.0884
CCGTACAG	0.0698
AGCGATTA	0.0695
TCGTGAAA	0.0742
AATTGCTG	0.0737
CCGCGCAA	0.0729
CCTGCGAC	0.076

Sequence	binding signal (normalized occupancy)
GAAGGGTC	0.0705
GATCCGGA	0.0733
GTTGGCCA	0.0757
AATACGGT	0.0743
AATTGACA	0.0733
GACGCGGC	0.0758
TACAACGA	0.0759
ACGCATGA	0.102
CCCCGTCG	0.0768
ACTTTTTG	0.0733
CATTTGAG	0.0913
AGGTTTAG	0.0686
AGGGCCTA	0.0723
CCTTCAAG	0.072
AATCGCGC	0.071
AAATATCA	0.0808
AAGCCGCT	0.0662
CCCCGGTA	0.0743
CGGTATAC	0.0811

— PMC4242493
